Some of the results follow.
The molecules below were run on HSkMC (human skeletal muscle cells) (assay: cytotoxicity call (relative viability < 0.9)). Settings: 10 µM.
With `CO[C@@H]1CN(C)C(=O)c2cc(NS(=O)(=O)CC(F)(F)F)ccc2OC[C@H](C)N(C(=O)c2ccc3c(c2)OCO3)C[C@@H]1C` the cytotoxicity call was “inactive”. `Cc1noc(C)c1S(=O)(=O)Nc1ccc2c(c1)C(=O)N([C@H](C)CO)C[C@H](C)[C@@H](CN(C)Cc1ccc(Cl)c(Cl)c1)OCCCC[C@@H](C)O2` was tested, and the cytotoxicity call was “inactive”. `C[C@@H]1CCCCO[C@@H](CN(C)S(=O)(=O)c2ccc(Cl)cc2)[C@@H](C)CN([C@H](C)CO)C(=O)c2cc(NC(=O)Cc3ccccc3)ccc2O1` was tested, and the cytotoxicity call was “inactive”. For `Cc1ccc(S(=O)(=O)Nc2ccc3c(c2)C(=O)N([C@H](C)CO)C[C@H](C)[C@H](CN(C)C(=O)CCC(F)(F)F)OCCCC[C@H](C)O3)cc1`, the cytotoxicity call was “inactive”. For `O=C(CC(=O)N1CCOCC1)N1CCOCC1`, the cytotoxicity call was “inactive”. `C[C@H](CO)N1C[C@H](C)[C@@H](CN(C)CC2CCCCC2)Oc2ccc(NC(=O)Nc3ccccc3)cc2C1=O` was tested, and the cytotoxicity call was “inactive”. In the case of `C[C@@H]1CN([C@H](C)CO)C(=O)c2cc(NC(=O)Nc3ccccc3)ccc2O[C@@H](C)CCCCO[C@@H]1CN(C)C(=O)NC1CCCCC1`, the cytotoxicity call is reported as “inactive”. With `C[C@H](CO)N1C[C@H](C)[C@@H](CN(C)C(=O)C2CC2)Oc2ncc(-c3ccc(C(=O)N(C)C)cc3)cc2C1=O` the cytotoxicity call was “inactive”. In the case of `C[C@@H]1CN([C@H](C)CO)C(=O)Cc2cc(NC(=O)CCN3CCOCC3)ccc2O[C@@H]1CN(C)Cc1ccncc1`, the cytotoxicity call is reported as “inactive”. For `C[C@H](CO)N1C[C@H](C)[C@@H](CN(C)C(=O)Nc2ccc(N3CCN(C)CC3)cc2)OCc2cnnn2CCCC1=O`, the cytotoxicity call was “inactive”. In the case of `C[C@H]1O[C@@H](n2cc(F)c(=O)[nH]c2=O)[C@H](O)[C@@H]1O`, the cytotoxicity call is reported as “inactive”. `CCCN(C)C[C@@H]1Oc2cc(C#Cc3ccccc3OC)ccc2S(=O)(=O)N([C@@H](C)CO)C[C@@H]1C` was tested, and the cytotoxicity call was “inactive”. In the case of `C[C@H](CO)N1C[C@H](C)[C@H](CN(C)Cc2ccc(Cl)c(Cl)c2)Oc2ccc(NC(=O)Nc3ccccc3)cc2C1=O`, the cytotoxicity call is reported as “inactive”. `COC(=O)C1=CC(CCCO)=C[C@@H](c2ccc(CN3CCCC3)cc2)N(Cc2sc3ccccc3c2Cl)C=C1C(=O)OC` was tested, and the cytotoxicity call was “inactive”. `O=C(N[C@@H](c1ccccc1)c1ccc2ccccc2n1)C1CCN(C(=O)NC(c2ccccc2)c2ccccc2)CC1` was tested, and the cytotoxicity call was “inactive”. `OCc1cc(O)c2c(O)c3c(O)cccc3c(O[C@@H]3O[C@H](CO)[C@H](O)[C@@H](O)[C@H]3O)c2c1` was tested, and the cytotoxicity call was “inactive”. For `OCCN1CCN(c2ncnc3c2ncn3[C@H]2CN(Cc3cccc(C(F)(F)F)c3)C[C@@H](CO)O2)CC1`, the cytotoxicity call was “inactive”. For `Cc1noc(C)c1NC(=O)N(C)C[C@H]1Oc2c(NS(C)(=O)=O)cccc2C(=O)N([C@@H](C)CO)C[C@H]1C`, the cytotoxicity call was “inactive”. `CC1(C)CCC2(C(=O)O)CCC3(C)C(=CCC4C5(C)CCC(O)C(C)(C)C5CCC43C)C2C1` (stereo not given) was tested, and the cytotoxicity call was “inactive”. `C[C@@H]1CN([C@@H](C)CO)C(=O)c2cc(NC(=O)Nc3cccc4ccccc34)ccc2O[C@H]1CN(C)C(=O)Nc1ccc(F)cc1` was tested, and the cytotoxicity call was “inactive”. In the case of `COc1cc2c(cc1O)[C@H](c1ccc(CN3CCCC3)cc1)N(Cc1cc3c(cc1Br)OCO3)CC2`, the cytotoxicity call is reported as “inactive”. With `C[C@@H]1CCCCO[C@@H](CN(C)Cc2ccc(Cl)c(Cl)c2)[C@H](C)CN([C@H](C)CO)C(=O)c2cc(NC(=O)c3ccccc3)ccc2O1` the cytotoxicity call was “active”. With `CC1C(=O)CCC2C1(C)CCC1C2(C)CCC2(C)C3CC(C)(C)CCC3(C)CCC12C` (stereo not given) the cytotoxicity call was “inactive”. With `Cc1noc(C)c1NC(=O)Nc1ccc2c(c1)C(=O)N([C@@H](C)CO)C[C@@H](C)[C@H](CN(C)S(=O)(=O)c1ccccc1)OCCCC[C@@H](C)O2` the cytotoxicity call was “inactive”. `C[C@@H]1CCCCO[C@@H](CN(C)Cc2ccncc2)[C@@H](C)CN([C@@H](C)CO)C(=O)c2cc(NC(=O)Nc3ccc(C(F)(F)F)cc3)ccc2O1` was tested, and the cytotoxicity call was “inactive”. `Cc1c[nH]c2ccccc12` was tested, and the cytotoxicity call was “inactive”. For `CN(C)CCCN1C(=O)[C@@H]2[C@@H](C1=O)[C@@H]1C=C[C@@H]2C1`, the cytotoxicity call was “inactive”. For `Cc1noc(C)c1S(=O)(=O)Nc1cccc2c1O[C@H](CN(C)C(=O)Nc1ccc3c(c1)OCO3)[C@H](C)CN([C@@H](C)CO)C2=O`, the cytotoxicity call was “inactive”. `C[C@H]1CN([C@@H](C)CO)C(=O)c2cccc(NC(=O)C3CCOCC3)c2O[C@@H]1CN(C)S(=O)(=O)c1ccc(F)cc1` was tested, and the cytotoxicity call was “inactive”. In the case of `COc1ccc([Si](C)(C)[C@@H]2[C@@H](CC(=O)N(CCO)Cc3ccccc3)O[C@]3(C(=O)N(C)c4c(Br)cc(C)cc43)[C@H]2C)cc1`, the cytotoxicity call is reported as “inactive”.

From the antibiotic and cytotoxicity screens of Wong et al. (2023)
